Data taken from patent US20240228645A1 (DRAGONFLY THERAPEUTICS, published 2024).
Numbering of substitutions follows the chain as printed.

Experiments:
[1] = target: T1, cynomolgus monkey BAFF-R expressed on CHO cells (cBAFF-R-CHO) (cynomolgus monkey); assay: cell binding assay, cBAFF-R+ cells
T1 construct: whole, on cells; also called cynoBAFF-R
Source text: (§1) Selected clones from the off rate challenge studies described above were produced as multispecific binding proteins comprising an scFv of the respective binders, and two non-BAFF-R binders, expressed in Expi293 cells, and characterized by binding to hBAFF-R expressing cells and cynomolgus BAFF-R expressing cells, ability to lyse BAFF-R expressing cancer cells in a KHYG-1-CD16aV mediated cytotoxicity assay, ability to block BAFF-BAFF-R interactions, thermostability (differential scanning fluorimetry, DSF) and hydrophobicity (HIC) (results are summarized in Table 12). Binding affinity of AB1080, AB1081, and AB1085 to BAFF-R⁺ cells was improved as compared to the parental clones (FIGS. 23A-23B as compared to Table 12). Additionally, binding affinity to cynoBAFF-R was similar to binding affinity to hBAFF-R (FIGS. 23A-23B). Lack of polyspecificity was confirmed by a PSR assay (FIGS. 24A-24B). AB1084 was removed from further study, due to long retention time on HIC and subsequent potential for higher aggregation propensity. […] In addition, a greater than ten-fold improvement in potency was observed as compared to the original AB0369 multispecific binding protein.

[2] = target: T2, human BAFF-R expressed on cells (hBAFF-R-CHO isogenic CHO cells; BAFF-R+ cancer cells) (human, UniProt Q96RJ3 1-184); assay: cell-based or functional assay
[3] = target: T2, human BAFF-R expressed on cells …; assay: ligand blocking assay; competitor BAFF-biotin on CHO cells expressing human BAFF-R
[4] = target: T2, human BAFF-R expressed on cells …; assay: cell binding assay, human BAFF-R cells
[5] = target: T1, cynomolgus monkey BAFF-R expressed on …; assay: cell binding assay, cynomolgus BAFF-R cells
[6] = target: T2, human BAFF-R expressed on cells …; assay: cell binding assay, hBAFF-R+ cells
Source text: as §1

B1: AB1080 multispecific binding protein (other, not shown: a dimerising Fc or GST; small tags and cut ends)
VH: EVQLVQSGGGVVQPGRSLRLSCAASGFTFSSYGMHWVRQAPGKCLEWVAVIWYDASNKYYGDSVKGRFTISRDNSKNTLYLQMNSLRDEDTAVYYCARRFTHLRGWYIEDYGLDVWGQGTTVTVSS
VL: EIVLTQSPSSLSASVGDRVTIT[gap - about 80 residues]FGCGTKVEIK
notes: also called AB1080-002; AB1080-003
EC50 [1]: 1.36 nM | Cytolysis, EC50 [2]: 0.03 nM | IC50 [3]: 5.72 nM | EC50 [4]: 2.71 nM | EC50 [5]: 2.36 nM | EC50 [6]: 1.97 nM

B2: AB1081 multispecific binding protein (other, not shown: a dimerising Fc or GST; small tags and cut ends)
VH: B1 VH with T28A, A55E, K76R, H102N, Y107I
VL: EIVLTQSPSSLSASVGDRVTIT[gap - about 80 residues]FGCGTKVEIK
notes: also called AB1081-002
EC50 [1]: > 14 nM | Cytolysis, EC50 [2]: 0.05 nM | EC50 [6]: > 8 nM
